Results: ChEMBL document CHEMBL1128428, “Inhibition of matrix metalloproteinases by hydroxamates containing heteroatom-based modifications of the P1' group” (J Med Chem, 1995)

Molecular target: Neutrophil collagenase (Homo sapiens, UniProt P22894)

| SMILES | Ki |
| --- | --- |
| CNC(=O)[C@H](Cc1ccccc1)NC(=O)[C@@H](CC(=O)NO)CC(C)C | 2 nM |

Molecular target: Stromelysin-1 (Homo sapiens, UniProt P08254)

| SMILES | Ki |
| --- | --- |
| CC(C)(C)[C@H](NC(=O)[C@H](CCCCOc1ccccc1)CC(=O)NO)C(=O)NCCC(=O)O | 3 nM |
| CNC(=O)[C@@H](NC(=O)[C@H](CCCCOc1ccc(C(C)(C)C)cc1)CC(=O)NO)C(C)(C)C | 16 nM |
| CNC(=O)[C@@H](NC(=O)[C@H](CCCCOc1ccc(Cl)c(Cl)c1)CC(=O)NO)C(C)(C)C | 62 nM |
| CNC(=O)[C@@H](NC(=O)[C@H](CCCCOc1ccccc1)CC(=O)NO)C(C)(C)C | 6 nM |
| CC(C)(C)[C@H](NC(=O)[C@H](CCCCOc1ccc(Cl)cc1)CC(=O)NO)C(=O)NCCCN1CCOCC1 | < 2 nM |
| CNC(=O)[C@@H](NC(=O)[C@H](CCCCOc1ccc(F)cc1)CC(=O)NO)C(C)(C)C | 38 nM |
| CCCCCc1ccc(OCCCC[C@H](CC(=O)NO)C(=O)N[C@H](C(=O)NC)C(C)(C)C)cc1 | 14 nM |
| CC(C)(C)[C@H](NC(=O)[C@H](CCCCOc1ccc(Cl)cc1)CC(=O)NO)C(=O)NCCc1ccccc1 | 5 nM |
| CC(C)(C)[C@H](NC(=O)[C@H](CCCCOc1ccccc1)CC(=O)NO)C(=O)NCCCC(=O)O | 2 nM |
| CNC(=O)[C@@H](NC(=O)[C@H](CCCCOc1cccc(Cl)c1)CC(=O)NO)C(C)(C)C | 112 nM |
| CNC(=O)[C@@H](NC(=O)[C@H](CCCCOc1ccc(OC)cc1)CC(=O)NO)C(C)(C)C | 41 nM |
| CC(C)(C)[C@H](NC(=O)[C@H](CCCCOc1ccc(Cl)cc1)CC(=O)NO)C(=O)NCCc1ccc(S(N)(=O)=O)cc1 | < 2 nM |
| CNC(=O)[C@@H](NC(=O)[C@H](CCCCOc1cccc(C)c1)CC(=O)NO)C(C)(C)C | 54 nM |
| CC(C)(C)[C@H](NC(=O)[C@H](CCCCOc1ccc(Cl)cc1)CC(=O)NO)C(=O)NCCc1ccccn1 | 6 nM |
| CCCc1ccc(OCCCC[C@H](CC(=O)NO)C(=O)N[C@H](C(=O)NC)C(C)(C)C)cc1 | 11 nM |
| CC(C)(C)[C@H](NC(=O)[C@H](CCCCOc1ccc(Cl)cc1)CC(=O)NO)C(=O)NCCN1CCCC1 | 5 nM |
| CNC(=O)[C@@H](NC(=O)[C@H](CCCCOc1ccc(C(C)C)cc1)CC(=O)NO)C(C)(C)C | 12 nM |
| CNC(=O)[C@@H](NC(=O)[C@H](CCCCOc1cccc(OC)c1)CC(=O)NO)C(C)(C)C | 65 nM |
